Where a structure was tested more than once in an assay, its records may differ in their call.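 Treatment: one concentration, 48 hours, 96-well format. Scoring: percent growth, with anything below 10 considered active.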 The source holds more than one record for some entries. This is not the full list of results. There may be further records. These are repeated runs of one drug, at the concentration stated with the values; each value is one run. Marks such as (2×) give the number of equal values in this list.
Legend:
Assay in all cases: NCI-60 one-dose screen, 48 h (100 = growth as untreated, 0 = no growth, -100 = all killed)
[1] = test system: OVCAR-8 ovarian; details: 2.5 mM
[2] = test system: OVCAR-5 ovarian; details: 2.5 mM
[3] = test system: OVCAR-4 ovarian; details: 2.5 mM; runs of 1991

O=c1[nH]cc(F)c(=O)[nH]1
growth ([1]; runs of 1997): inactive: 21.1, 35.4, 34.4, 47, 22.5, 29.1, 43.5, 10.8, 25.1, 42, 26.5 (2×), 24.9, 33.3, 22.7, 17.5, 34.2, 31.8, 24.6, 29.5 (3×), 30.8 (2×), 21.9, 19.5, 18.2, 27.2, 31.4, 31.6, 32.8, 28.9, 26.4, 32, 25.4, 29.2, 28.7, 40, 22.4, 27.3, 23.1% and active: -0.681% | growth ([1]; runs of 1998): inactive: 22.7, 18.3, 27, 28.2, 12.8, 32.8, 30.9, 21, 28.4, 25.7, 34.2, 31.5, 25.9, 16.7, 43.6, 31.4, 24.2, 20.6, 35.5, 30.1, 28.8, 38.4, 23.7% and active: -43.1% | growth ([1]; runs of 1999): inactive: 20.1, 20.4, 26.5, 24.5, 20.3, 27.2, 18.7% and active: -100, 0.0973, 2.22, 7.43, 1.11, 0.983, -72.4, -4.58, 6.41, 6.18% | growth ([1]; runs of 2000): active: 0.0677, 4.55, 2.59, 1.15% | growth ([2]; runs of 1991): active: -38.1, -27.3, -41.4, -33, -59.3, -24.9, -60.9, -27.4, -42.6, -4.79, 3.31, -52.7, -26.6, -2.2, -24.2, -75.8, -53% | growth ([2]; runs of 1992): active: -45 (2×), -45.2, -10.3, -5.57, -62.1, -74.1, -39.8 (2×), -37.8, -8.81, -42, -9.85, -42.5, 7.08, -30.1, -63 (2×), -50.4, -29.8 (2×), -66.5, -7.9, 4.71, 0.623, -2.75, -7.6, -4.13, -14.4 (2×), -7.48, -63.1, -37.5, -30.6, -57.8, -60, -31, -40.2, -3.33, -1.37, 2.34, -9.81, -10, -2.21, 9.92, -23.8, -31.2, -31.5, -64.9, -25.9, -36.6, -12, -59.6, -18.5, 6.19, -43.2, -47.1, -26.9, 3.71, -53.6, -0.338, -41.6, -12.5, -25.2, -7.19, -32.3, -17.6, -5.77, -51.5, -28.2, -27.5, -2.83, -21.9, -56, 6.33, -37.7, -29.6, -22.7, -44.6, -40, -31.7, -35.4, -20.1, -22.6 (2×), -33.3, -21.5, 0.078, -13.5, -0.417, 1.68, -0.347, -12.3, -5.39, -39.1, -68.8, -26.3, -14% and inactive: 12.1, 10.3, 94.5, 10.9, 28.5, 232, 14, 14.6, 25.5, 17.2% | growth ([2]; runs of 1993): active: -4.64, -4.76, -61.8, -17.1, -7.57, -69.7, -26.4 (2×), -30.5, -23, -1.29, -62.6, -51.4, -0.292, 7.05, -47.6, -34.1, -50, -76.1, -0.469, -2.02, -18, -39.5, -27.7, -20.2, 0.879, 2.32% and inactive: 16.9, 21.2, 18.3, 34.1, 15.9, 16.8, 16.7, 15, 29.9, 14.9, 117, 109, 17.8, 40.1, 42.9, 31.4% | growth ([2]; runs of 1994): inactive: 17, 26.7, 14.3 (2×), 19.5, 22.4, 33.9, 14.2, 24.3, 29.3, 10.9, 11, 35.8, 30% and active: -40.3, -31.5, -7.06, -9.91, 5.63, 8.51, -3.96, -6.73, -23, -1.82, -10.1, -27.5, -45.4, -32.3, 1.63, -53.8, -38.6, -31.4, -35.2, 1.27% | growth ([2]; runs of 1995): inactive: 13.6, 42.9, 33 (2×), 17.2, 11.3, 18.1, 14.3, 26.1, 25.1, 29.4, 14.5, 26.6, 34.4, 26.8, 10.9, 11.6% and active: -3.46, 9.98, -27.2, -11.1, -17.2, -2.45, -15.9, 3.43, -25.3, -47.5, -28, 7.47, 9.87, -31.2, -12.2, -51, -6.9, -19.9, -40% | growth ([2]; runs of 1996): inactive: 19.1, 39, 34.2, 33.9, 40.1, 33.5, 45, 47.1, 21.8, 10.2 (2×), 11.4, 13.7, 26.5, 27.4, 43.1, 15.9, 13.9, 20.3, 18.8, 28.2, 35.3, 41.6, 22.4, 44.2, 11.2, 29.8, 36.7, 38.1, 13.2, 14.1, 39.3, 44.3, 34.1% and active: -35.5, 7.76, -0.646, -52.6, -0.627, 5.19, -19.6, 2.12, -46.2, -44.4, -12.2, -13, -40.1, 5.81, 1.93, -9.82, 2.37, -4.46, -25.3, 3.1, -5.54, -6.62, -22.8, -23% | growth ([2]; runs of 1997): inactive: 16.4, 18.6, 19.5, 11.6, 47.8, 14.1, 18.8, 21.1, 37.7, 12.5, 25.8, 17.4, 36.8, 43.1, 29.5, 114, 31, 43.3, 15.4, 33, 37.6, 49.3, 22.6% and active: -11.6 (2×), -1.18, -28.2, -0.811, -44.8, -47.6, 6.98 (2×), -14.7, -8.46, -18.6, -6.73, -4.98, -12.2, 1.79, -0.976, -10.2, -18.8, 8.39, -5.38, 7.8% | growth ([2]; runs of 1998): inactive: 38.2, 48.5, 18.9, 41.1, 35, 27.4, 25.7, 12.7, 34.6% and active: -12.3, 0.143, 3.87, -13.9, -16.7, -30.8, -13.2, -9.28, -42.7, 9.28, -16.9, -45.1, 1.65, -0.126, -52.9% | growth ([2]; runs of 1999): inactive: 18.2%, 32.4%, 14.9% and active: 3.25, 5.19, 3.63, -63, -23, 2.41, -15.9, 0.831, 0.873, -24, -44.8, 0.678, -59.3, 2.98% | growth ([2]; runs of 2000): active: -55, 1.73, 2.06, -17% | growth [3]: active: -21, -32.3, -34.1, -8.59, -41.4, -13.8, -21.8, -14.6, -44.7, -5.87, -30.2, -41.8, -20.3, -33.6, -20.7, -45.5, -39.1, -43.8% and inactive: 13.6%

Reference: PubChem BioAssay (NCI)
